Data: PubChem BioAssay AID743279 (National Center for Advancing Translational Sciences (NCATS), 2014)
The campaign covered roughly 360,000 compounds. About 17,000 (4.7%) were called active. The inconclusive results got no clear call from the source; some entries with a clear call stand among them for comparison. Cut-off read from the data, not from the text of the source: active = activity change below about -50%; inconclusive = mostly about -30% to -49%; inactive = weaker than that.

Test: qHTS for Inhibitors of Inflammasome Signaling: IL-1-beta AlphaLISA Primary Screen
Conditions: THP-1 LPS/ATP IL-1B secretion, 16 h; at 57.5 µM, hits give low values
How it was run: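 THP-1 cells pretreated 1 hr with compounds (up to 57.5 uM final), then stimulated with LPS (250 ng/mL final) plus ATP (1.25 mM final); secreted IL-1B measured by AlphaLISA after 16 hr, decreased signal indicating inhibition.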
% is set by controls: 0 for no effect and ±100 for the full control effect.

Activity change, inconclusive:
CCOc1cc(/C=N/NC(=O)CNc2ccc(C)cc2)ccc1OC(=O)c1ccccc1 -38.8%
OC(COc1ccc(OCC(O)CN2CCCCCC2)cc1)CN1CCCCCC1 (stereo not drawn) -38.2%
O=C(c1ccccc1)N1CCN2C(=O)c3ccccc3C12c1ccc(Cl)cc1 (stereo not drawn) -43.7%
COc1ccc(/C=N/Nc2nc(-c3ccc(C)cc3)c(NC(C)=O)s2)cc1 -47.1%
CCC1(c2ccccc2)NC(=O)N(CC(=O)Nc2cc(S(=O)(=O)N3CCCCC3)ccc2OC(C)C)C1=O (stereo not drawn) -42%
C=CS(=O)(=O)N(Cc1ccccc1Br)[C@H](CO)CC(C)C -36.1%
CC(=O)Nc1ccc(S(=O)(=O)NCCC(=O)N2CCN(C(c3ccccc3)c3ccccc3)CC2)cc1 -34.6%
Cc1cc([N+](=O)[O-])ccc1NC(=O)C(C)NC1CCCCC1 (stereo not drawn) -43.1%
NC(=O)[C@H]1CC2(CC(c3cccc(NC(=O)COc4ccc(Cl)cc4)c3)=NO2)CN1C(=O)C(c1ccccc1)c1ccccc1 (stereo partly drawn) -45.6%
CCc1ccc(N(CC(=O)NC(C)C)C(=O)CCC(=O)Nc2nccs2)cc1 -38.3%
O=C(COc1ccc(Cl)cc1Cl)NC(=O)N1CCOCC1 -32.4%
O=C1NN(c2ccccc2)C(=O)/C1=C\c1cccn1-c1ccc(Cl)c([N+](=O)[O-])c1 -34.9%
Cc1cc(NC(=O)CCC(=O)N(c2cccc(F)c2)C(C(=O)NC2CCCC2)c2ccc(C)o2)no1 (stereo not drawn) -42.2%
Cc1ccc(OCCN2CCN(c3ncnc4sc(C)c(C)c34)CC2)cc1 -41%
Cc1cccc(Oc2cc(NC(=O)c3ccccc3)cc([N+](=O)[O-])c2)c1 -44.6%
C[C@H]1CN([C@@H](C)CO)C(=O)Cc2cc(NS(C)(=O)=O)ccc2O[C@@H]1CN(C)Cc1ccc(Cl)c(Cl)c1 -44.3%
Cc1ccc(N2C(=O)N(CC(=O)Nc3ccc(F)c(F)c3)C(=O)C2C)cc1 (stereo not drawn) -39.8%
Nc1nonc1-n1nnc(C(=O)N/N=C/c2ccc(O)cc2)c1COc1ccc(F)cc1 -36.1%
COc1ccc(Nc2ccccc2NC(=O)c2ccccc2Br)cc1 -39.9%
O=C(Nc1ccc(CN2CCCCC2)cc1)c1cc(Br)ccc1Cl -46.4%
Cc1cc(N2CCN(Cc3cn(C)nc3-c3ccccc3F)CC2)cc(C)n1 -36.1%
Cc1ccc(C)c(N2CCN(S(=O)(=O)c3ccc4c(c3)NC(=O)CS4)CC2)c1 -48.6%
Cc1ccc(NC(=O)c2noc3c2CCCCC3)cc1C -33.2%
CCC1CC(CSC(=N)N)OC1=O (stereo not drawn) -47%
COc1ccc(OC)c(-c2csc(NC(=O)CN3C(=O)NC4(CCCC4)C3=O)n2)c1 -47.2%
Nc1ccc(O)cc1C(=O)OCC(=O)C12CC3CC(CC(C3)C1)C2 -39.5%
COc1ccc(-c2c3c(cc(C)[n+]2[O-])oc2ccc(OC)cc23)cc1 -47.4%
Cc1ccc(Cc2cnc(NC(=O)c3cccs3)s2)cc1 -34.7%
CN(Cc1cn(Cc2ccc(C(F)(F)F)cc2)nn1)C1CN(Cc2cn(Cc3ccc(C(F)(F)F)cc3)nn2)S(=O)(=O)C1 (stereo not drawn) -40%
O=c1c2c(c(-c3ccccc3)nn1Cc1ccccc1)CCCC2 -32.6%
COC(=O)[C@@]1(Cc2ccc(F)cc2)[C@H]2c3cc(C(=O)N4CCCC4)n(Cc4ccc(C(F)(F)F)nc4)c3C[C@H]2CN1C(=O)c1ccccc1 -34.9%
COc1ccc(C(=O)Nc2ccc(NC(C)=O)cc2)cc1S(=O)(=O)N(C)Cc1ccccc1 -32.6%
Cc1cccc2sc(N(CCCN(C)C)C(=O)c3ccc4ncsc4c3)nc12 -40%
CC(=O)N1c2ccccc2S(=O)(=O)c2c1ccc1ccccc21 -48.9%
O=c1[nH]c(NCCCO)nc2c1C1(CCCC1)Cc1ccccc1-2 -30.7%
CNC(=O)/C(=C\c1cccc(Oc2ccccc2)c1)NC(=O)c1ccccc1 -30.2%
CCC1CCCCN1S(=O)(=O)c1ccc(NC(=O)c2cccs2)cc1 (stereo not drawn) -32.6%
CCCN(CCC)C(=O)c1cc2c(=O)[nH]c3ccc(C)cc3c2s1 -35.5%
Cc1noc(C)c1S(=O)(=O)Nc1ccc2c(c1)C(=O)N([C@@H](C)CO)C[C@@H](C)[C@@H](CN(C)CC1CCCCC1)OCCCC[C@@H](C)O2 -30.6%
COc1ccc(CN(C)CC(=O)Nc2cc(OC)c([N+](=O)[O-])cc2C)c(OC)c1 -30.8%
CN1CCN(c2nc(-c3ccc(Cl)cc3)cc(=O)[nH]2)CC1 -46.2%
CCC1CCCCN1C(=O)COc1ccc2c(c1)OCO2 (stereo not drawn) -31.6%
Cc1cc(N2CCCN(C)CC2)nc2cc(Cl)ccc12 -45.4%
CCN(CC)S(=O)(=O)c1ccc(N2CCCC2)c(NC(=O)c2ccc(OC)cc2OC)c1 -38.7%
O=C1c2sc3nc4ccccc4n3c2C(=O)N1c1ccccc1Cl -42.2%
CCc1cc(=O)oc2cc(OCC(=O)NCCCn3ccnc3)c(Cl)cc12 -32.5%
O=C(Nc1ccc(-n2nncc2-c2ccco2)cc1)c1cccc(F)c1 -40.9%

Activity change, active:
CCN(CC)S(=O)(=O)c1ccc(C(=O)Nc2ccc(Cc3ccncc3)cc2)cc1 -83.4%
COc1ccc2[nH]c3c(N4CCc5ccccc5C4)ncnc3c2c1 -97.5%
O=C(Nc1cccc(S(=O)(=O)Nc2ccc(Cl)cc2)c1)c1cc2c(s1)CCCC2 -81%
COC(=O)c1sc(NC(=O)COc2ccc(C)cc2)nc1C -63.3%
O=C1c2cc([N+](=O)[O-])ccc2-c2cc(Br)c(N=C(NO)C(F)(F)F)cc21 -101%
O=C(OCC(=O)N1CCN(C(=O)c2ccco2)CC1)c1cc(-c2ccccc2)nc2ccccc12 -69.8%
CCCOc1ccc(-c2nc(C#N)c(N3CCN(CC)CC3)o2)cc1 -60.1%
COc1cc(/C=C2\SC(=S)N(CCC(=O)Nc3cccc(O)c3)C2=O)cc(OC)c1OC -98.3%
CC(NC(=O)Cn1ccsc1=N)C12CC3CC(CC(C3)C1)C2 (stereo not drawn) -59.5%
Cc1cccc(-n2cc(-c3ccccc3)c3c(N4CCOCC4)ncnc32)c1 -66.9%
Cc1ccc(C)c(CN2CCC(CNC(=O)Nc3ccc(Cl)cc3)CC2)c1 -94.6%
O=C(Nc1nc(=O)c2ccccc2s1)c1ccc(F)cc1 -99.3%
COc1ccc2[nH]c3c(c2c1)CCN1C(=O)C(CC(=O)NCCC2=CCCCC2)C[C@H](C(=O)N(C(C)C)C(C)C)[C@@]31C (stereo partly drawn) -58.9%

Activity change, inactive:
COC(C[C@H]1O[C@H]1C(=O)[C@@H](C)OCc1ccccc1)OC -12.8%
CC1CCC2C(=O)N(c3cccc(OS(=O)(=O)c4ccccc4)c3)C(=O)C2C1 (stereo not drawn) 17%
CNS(=O)(=O)c1cccc(C(=O)NNC(=O)c2ccc(COc3ccccc3)cc2)c1 -9.82%
O=C(CN1CC(=O)Oc2ccccc21)OCC(=O)c1cccc(Br)c1 46.2%
O=C(COC(=O)CSc1ccc([N+](=O)[O-])cc1)NC1CCCCCCC1 -6.94%
CN(CC(=O)Nc1ccc(F)c(F)c1F)C(=O)Cc1ccc(S(=O)(=O)N2CCOCC2)s1 17.2%
CSc1ccccc1NS(=O)(=O)c1ccc2c(c1)OCCO2 6.12%
CC(C)C[C@H]1CN(CCCC[C@H]2CNC(=O)C(=O)N2CCC2CCCCC2)C(=O)C(=O)N1CC1CCCCC1 -23.5%
COCCCNc1nc2c(-c3ccc(C)cc3)nnn2c2ccccc12 28.7%
COC(=O)c1cc2sccc2n1Cc1nc(-c2ccc(OC)cc2)oc1C 22.6%
CC(C)c1ccc(CN(C(=O)c2ccco2)C2CCS(=O)(=O)C2)cc1 (stereo not drawn) 7.17%
CC(=O)c1nc2ccccc2n1Cc1ccccc1 24.8%
Cc1cc2nc(C)c(Cc3ccccc3)c(=O)n2[nH]1 -11%
COc1ccc(/C=C/CN2CCN(Cc3ccccc3)C(CCO)C2)cc1 (stereo not drawn) -8.22%
Cc1ccc(-c2cc(C(=O)Nc3cccnc3)c3ccccc3n2)s1
C[C@H]1CN([C@@H](C)CO)C(=O)CCCn2nncc2CO[C@@H]1CN(C)Cc1ccc2c(c1)OCCO2 7.97%
COCCCN1C(=O)c2[nH]nc(-c3ccccc3O)c2C1c1ccc(Cl)cc1 (stereo not drawn) -7.48%
COc1ccccc1CN1CCC(n2nccc2NC(=O)CCOc2ccccc2)CC1
Cc1ccc(NC(=O)O/N=C/c2ccc(N(C)C)cc2)cc1 -24.8%
CC(C)N1CCC1(C)C(=O)Nc1cccc2ccccc12 (stereo not drawn) 12.4%
CCOC(=O)c1c(NC(=O)C(C)Sc2nnc(C)c(=O)[nH]2)sc2c1CCCC2 (stereo not drawn) 30%
O=C(C(=O)N1CCCC1CO)N1CCCC1CO (stereo not drawn) 0%
CS(=O)(=O)N(CC(=O)Nc1ccc(S(=O)(=O)N2CCCC2)cc1)c1cccc(F)c1 -7.09%
